Test results from the supplement of paper PMC3334620.
Whole data set: some 33,000 sequences, median “E-score (-0.5 to 0.5)” near -0.012, cut for the highest 2% near 0.29. This is one part of the list.

Molecular target: T1, Ybr033w (UniProt P38073)
T1 sequence: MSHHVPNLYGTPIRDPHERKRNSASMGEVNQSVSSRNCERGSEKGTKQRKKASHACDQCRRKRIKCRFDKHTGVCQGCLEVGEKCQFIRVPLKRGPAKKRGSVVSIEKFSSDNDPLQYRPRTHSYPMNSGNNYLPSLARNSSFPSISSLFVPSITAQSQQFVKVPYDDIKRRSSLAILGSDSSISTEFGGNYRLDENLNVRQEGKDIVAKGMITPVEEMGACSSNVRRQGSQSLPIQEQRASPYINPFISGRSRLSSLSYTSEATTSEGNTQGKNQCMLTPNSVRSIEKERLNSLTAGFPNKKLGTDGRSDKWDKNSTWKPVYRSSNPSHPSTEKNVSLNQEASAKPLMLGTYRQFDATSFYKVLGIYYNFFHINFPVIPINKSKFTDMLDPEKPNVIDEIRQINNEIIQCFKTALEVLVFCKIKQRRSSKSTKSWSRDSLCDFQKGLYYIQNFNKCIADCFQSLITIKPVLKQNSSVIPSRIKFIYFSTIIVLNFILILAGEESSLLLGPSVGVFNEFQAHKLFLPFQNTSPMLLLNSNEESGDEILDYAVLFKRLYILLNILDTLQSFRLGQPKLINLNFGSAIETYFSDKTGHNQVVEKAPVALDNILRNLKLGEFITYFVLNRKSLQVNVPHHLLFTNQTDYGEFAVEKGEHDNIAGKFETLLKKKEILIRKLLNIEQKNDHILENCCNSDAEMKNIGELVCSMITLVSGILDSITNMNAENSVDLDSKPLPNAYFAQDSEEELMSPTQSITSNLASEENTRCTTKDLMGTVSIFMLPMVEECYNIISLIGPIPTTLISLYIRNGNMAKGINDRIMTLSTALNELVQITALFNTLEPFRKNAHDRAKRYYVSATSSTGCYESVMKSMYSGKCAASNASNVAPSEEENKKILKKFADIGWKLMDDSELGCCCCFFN
Test: PBM E-score (8-mer binding enrichment) (E-score (-0.5 to 0.5)); higher = stronger / more preferred TF binding; most listed sequences are background and not binding sites
Details: protein concentration: 200 nM; construct: GST-full length
Description: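 Universal 'all 10-mer' protein binding microarrays (Agilent AMADID 015681) probed with GST-tagged S. cerevisiae TFs (full-length or DBD) made by in vitro transcription/translation (PURExpress), about 100-200 nM. Bound TF was detected with fluorescent anti-GST. Each ungapped 8-mer (which stands for itself and its reverse complement) is scored by the PBM enrichment score (E-score), a modified Wilcoxon-Mann-Whitney statistic from -0.5 to +0.5, computed with the Universal PBM Analysis Suite. Scale: above 0.35 generally sequence-specific binding.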

Sequence	PBM E-score
CGAATGCC	-0.176
CCTCATCG	-0.0884
GAGGTAGA	-0.197
ATGCCGCG	0.00396
CTTTAGTC	-0.181
ATAACCGC	0.051
ATCAGGCG	0.0289
AACCCTTG	-0.0587
AATGCACA	-0.0262
CATCGGAA	0.25
AGCTAATA	0.078
GTGGAAAC	-0.0663
ACAGGTCT	-0.0687
CATAAACA	0.262
CTAGGTTA	0.0226
GAGTACAC	0.00128
CGTTTAGC	-0.0419
ATTAGCGG	0.0274
AAATTGAG	0.126
CGCTTTCC	-0.204
CAGCCAAA	0.18
AAGTGGTG	-0.0434
CCGAGTCG	-0.186
AACCTGCG	-0.218
TAACGGCA	-0.11

Sequence	PBM E-score
ACACTCAC	0.0907
ACTCATGC	-0.112
ACTCTTAA	-0.0552
CCACGTGC	-0.127
GACTGGCC	-0.14
AAGACTAC	-0.0766
GCATCAAA	0.183
CCCACTAC	0.00712
ATAGACTA	0.206
ATCCAAGC	-0.0241
AAGCAAGT	0.0784
CATCTACA	0.0525
CCGTAAGC	-0.0469
ACAAATCC	0.24
AACACGGG	-0.0541
GGGTCATA	-0.143
GTGGTCGA	-0.198
AGATCCTA	0.0138
GGCGGCTA	-0.244
CCTCGCCA	-0.272
AGACGCAC	-0.0525
CCACGTGG	-0.454
TTCGAGAA	0.0644
ACCCACGC	-0.192
CACCTTGA	-0.135

Sequence	PBM E-score
GCTAGTAA	-0.014
ACTCCAGG	-0.069
GAGTTCGC	-0.128
AGTGTATA	-0.133
CAATCTAA	0.163
AGGTTCAC	0.00758
AGCGAGCT	0.0856
CGCGTGAG	0.0421
AAACTACT	0.21
GACCGGTA	-0.384
CGTTGATC	0.00866
GAGGAGCC	-0.175
CCTAGCCC	-0.227
AAAGATGT	0.197
CACAGGCA	-0.184
AACGGAGA	-0.0619
ATATCGCG	0.135
GGCAGTCA	-0.0478
CAAGGCTG	-0.159
CATTCACC	0.136
CGTGCGTC	-0.109
CAGGAAAG	-0.182
CCTAAAAG	-0.226
GGTAACTA	0.094
CGGCCGGC	-0.254

Sequence	PBM E-score
AACGTACA	0.181
ACTGTGGC	-0.246
ACGCGTGA	0.0314
AGCTGTCA	0.0747
AACGGCTC	-0.0166
CTCCACTC	-0.194
CGCCTTAG	-0.231
CACAGGGA	-0.127
CGTTCGGA	0.222
CAGAAACC	0.00756
AACGCCCA	0.0152
AGGTAAAC	0.139
AGCTCTAT	-0.116
CATATCCG	0.12
GAATCCAC	-0.0914
CGTGCAAG	-0.141
CAACGTGC	-0.0126
AGCACCAT	-0.202
CTCCGTCC	-0.194
ATATAGCG	0.0143
CTTAATTC	0.257
GGATCACC	-0.213
GACAGCGA	-0.0967
GGAATCCC	-0.0201
ACCTATTG	0.0958

Sequence	PBM E-score
GTACGACA	-0.00798
ATCACCCA	0.0281
GGTTATTA	0.149
AGCACCCG	-0.123
GCGGCTCC	-0.245
CGCTTAGC	-0.137
ACGAATAT	0.295
CCGTGGCA	-0.242
CAGTCTGC	-0.187
GGGGCTTA	-0.357
AGGGACAC	0.0135
ACTTCACG	-0.102
ACTTTAGA	0.112
AGCGACGC	-0.134
AAACACCG	0.0265
ACGATAGC	0.0994
ACGCATTC	-0.108
CACAGATA	-0.00259
AATTCCGC	0.172
AAAAGCAT	0.104
GTGCGGAA	0.111
GATTCAAC	0.083
ATGACCAC	-0.115
GGACCATA	-0.185
ACTTGAAA	0.165

Sequence	PBM E-score
CCCATTCA	0.0145
ACCGATGA	-0.193
ATACAACC	0.0072
CGTTTGGC	0.108
CACGTAGA	-0.159
ATGGCCGC	-0.311
AGGTTGTG	-0.245
CGACTAAC	0.171
GAACCCCA	-0.133
CCTACCAG	-0.194
GCATACTA	0.0596
CCTAGCTA	-0.166
CACATTTA	0.0662
CAGAAAGA	0.155
CCGGGTCA	-0.0622
TGAAATCA	0.202
GAGTTTGA	0.122
ACCGTTAA	0.0767
CATATACG	0.137
ACCTGGCC	-0.103
ACGGAAAC	-0.12
CCTGGGCG	-0.319
GGAGCTCC	-0.201
AACAAGGA	0.12
CGAGTGCC	-0.198

Sequence	PBM E-score
ATTTATCG	0.0834
ACATCTTC	0.0736
AAGAGGCT	-0.184
GGTCGGCA	-0.192
TCCCTAGA	0.117
GATCGCGC	-0.118
CGTTCATA	-0.0368
CAACCTGA	0.0396
CATGCCGC	-0.0518
CACGATAA	0.187
ATAGAACG	0.202
TACGCAAA	0.0661
ATCATCGA	0.135
AGTCGAGA	0.076
TAGTGGCA	0.0891
AAAGGCAG	0.0198
TCAACGGA	-0.00829
CAACGATC	0.0482
AGGGACCG	-0.266
AGATATCG	0.0533
AGTAGTAA	0.178
CGACGGGA	-0.0153
